# Measured values: the RNAGym collection of RNA variant scans (doi:10.7554/elife.90254)
# Read counts are not given, so values of variants with three or more changes are uncertain.
# B1: OR4K15 (parent)
# chain: GUUAACGGUCAUAGGCCAUGGAAACUAGGAGCACCAUUUCGCUGCCAGUGAAGAAAUGAACAAAGAAAAUCUGGGCCAGGCAGGCAUCAAAAGAAAUAGUCUUGCGCUCAACCAGAAAGUCUGUAAUCAUUUUAAGGGUA
# Variants of: B1
# Experiment: self-cleavage, relative activity (ratio to wild type); higher = more cleavage; in vitro, sequencing; the parent is a self-cleaving ribozyme
row,Variant,self-cleavage
1,A24U A51U U122C,1.57
2,A27C A52G U132A,1.8
3,A27U A51G A95G,1.18
4,A24U A51G A60C,1.59
5,A27G A86G A98G,0.69
6,U26G U37C A126G,1.58
7,A27G A82G U108C,0.01
8,A24U A56G A92G A114U,0.02
9,U26C U108A A118G,0.01
10,G29A A56G A95G,2.57
11,A27G A33G A90G,0.26
12,U26C U43C A96G,1.12
13,A27U A51U A114U,0.04
14,A27G U102C A118C,0.89
15,A27G A96G A118G,1.39
16,U26C A69U A92G,1.44
17,U26C A27G A30G U49C,0.66
18,U26C A91G A96G,1
19,A27U U57C A59U,1.5
20,U26C A59G A78G,0.13
21,A24U A62G U130C U132C,1.19
22,U26A A56G A86G A95G U108C A118G,0
23,A27G U49C A92G U124C,1.29
24,U26C A92C U108C,0.01

row,Variant,self-cleavage
1,G28A A54U A95G,1.49
2,A24U U103C U133C A135G,0.96
3,A27G A51G A118G,1.27
4,U26C U43A A63C,1.8
5,U26C U38G U130C,1.24
6,A24U U39C A66G,0.75
7,U26A A33G U43A A54G A111G A129G,0
8,A27G A67U A68C A91G,0.57
9,A27C G83A A98G C121U,1.96
10,A27U A94G U102C U103A,0.21
11,A24G G75A U102C,0.03
12,A27G A51G A91G U97C,1.1
13,U26A A52G U70C,0.42
14,U26A U43A U127A,2.22
15,A27G U57C G99U U102C,1.33
16,U26C G58U A94G A95G,1.4
17,A24G U39C A117G U120C,1.03
18,A27G A54G U70C A92G A96C,0.49
19,A27G U39C A54G U122C,0.77
20,U26C G28A A33G A64G,0.44
21,U26C A68C A89U,1.47
22,G29A A82G A116G U133C A140U,0.46
23,A24G U39C A60G,0.83
24,A27G C40U A135U,0.36

row,Variant,self-cleavage
1,G28A G31A A63G A64U G99A U100C U131C U132C,1.8
2,C25U U49A A86G A91G A117G,0.08
3,G28U A60G A69G U124C,0.26
4,G28U A92G U130C,1.01
5,A27C U43A A51G A66G,1.3
6,A27G U43C G44C,1.33
7,A24U A78U U108C,0
8,A24G C77U A91U,0.99
9,A24U A33G U38C,0.24
10,A27G A30G A33G A63G,0.26
11,U26C A27G U38C A94C A111U A118G,0.12
12,A27G A91G A140G,1.12
13,A27G A60G G75U A126G,0.03
14,U26C A68U U87A,1.79
15,A27G A33G U108C,0.02
16,A27G A30U A62G A64G A82G A95G U130C,1.28
17,U26A U124C U130C,0.45
18,A24G U37C A82G,0.84
19,A24G U39C A78U A92G,0.5
20,U26C A55G A63G U70A A82G A117U,0.3
21,U26C A90G G93A U108A,0
22,U26C A66G A82G,0.51
23,U26C A98G G106A U139C,0
24,U26C G48A A51U A91G A116C U124C U132C,0.1

row,Variant,self-cleavage
1,U26C A33G U37C A47U A68G U122C U131C,0.14
2,U26G A78G A96G U108C,0
3,U26A A64G U87C U124C,0.61
4,A27G A33C A110G,0.23
5,A24G U37C U108C,0.06
6,A24U A66G A67G A110G A118U,0.09
7,A24G G80U A134G,0.1
8,A27G A47U A51U A63G U100C,1.23
9,A27G A62U A64C U132C,1.26
10,A27C U70A A82G U127A,0.59
11,A24G U39C A89C,0.9
12,G28C A117G U120C,1.22
13,U26A A68U A82G A116G,0.11
14,G28A A33C A56C U57C U72G,0.23
15,A27G A33G A91G A134G,0.16
16,A24G G75A A126G,0.06
17,A27C A68G U127C,0.54
18,A24G G84U A95G U131C,0.96
19,G28U A59U A96G U132C,1.61
20,A27U A55U A68G U97C,0.37
21,A27G A82G A111G U124C,0.01
22,A24U A63G U102C,2.14
23,A27G A36G A86U A90G A118G,0.93
24,U26C U43A G74A A94G A96U,0.1

row,Variant,self-cleavage
1,A24G U38C A68U A78U A98G A118G U131C,0.03
2,A27G A47G U127C U139C,0.42
3,A24G U49C U127C,0.55
4,A27U A68G U127C U132C,1.05
5,A24G U49C A66G U131C,0.36
6,U26C A27G U37C C46U,0.47
7,A24U A36G C76A A140G,0.11
8,A24G U87C U102A,1.04
9,U26C A51G A66U U100C,1
10,A24G U43C C85U A116U A126G,0
11,A24G U103C U120C U131C,0.21
12,A27G A59G U72G U87C A140G,0.14
13,C25A U39A A55G U108C U122C,0.02
14,U26A A51G A55G A91G A118G A126U,0.33
15,C25U U43C U72C A89G U102A,0.03
16,A27G A47G A67G A68G U103C,0.74
17,A27G U39A A98U,1.63
18,A27U U39C A59G A63G A64U U139A,0.98
19,A24G U39C U70C A82U,0.33
20,G28A A56G U87C,1.78
21,A27G A92G U97C,0.68
22,A27G A54G A118G,1.42
23,A24G U87A A129G,1.24
24,C25A A33G A69G U87A U103A A126U,0.16

row,Variant,self-cleavage
1,A24G U26A A56G U120A,1.36
2,G28A A64G A67G,0.7
3,A24G G79U G104A,0.03
4,U26C U49C A56G,1.46
5,A24U A52U U108C,0.02
6,A27G G31A A51G,0.89
7,A27U A60C A78G A116G,0.23
8,A24G U38A U120C,1.03
9,A27C U38C U132C,1.93
10,U26C A94G U100C,2.31
11,A24G G73A A95G U97C,0.05
12,A27G A52C A66U A114G,0.03
13,U26C A59G U102C U124C A125U,1.45
14,U26C A33G A36G,1.16
15,G29A U38C A67G G73U A114G,0.06
16,U26C A66G A91U,1.02
17,U26A A33G U37C U108A,0.03
18,A24U A52G U102C A114C U130C,0.01
19,G28A A55G G75A A95U U120C,0.08
20,A24G U49G U100C U102C U132C,0.63
21,A27U A36G U43C U49C A111G,0.02
22,A24U A111G A116G U130C,0
23,A24G G50A C88A U100C,2.03
24,G29A C45U A114G,0.84

row,Variant,self-cleavage
1,A24G U38C A62G A94G A110G,0.11
2,A24U U39A A64U,1.05
3,A27U A67G A96G U124C,0.49
4,A27G U108C U124A,0.03
5,A24G U37C U108A U131C,0.01
6,A27G U72C A89G,0.05
7,U26C A47U U132C A135U,0.84
8,A24G U87A U108C,0.02
9,A27G A56G U72C,0.36
10,A24U U43G A78U U103C,0.24
11,A27G A63G U70C A90G,1.12
12,A27U U43C A59G U127C,1.88
13,U26C A59G U103C,0.61
14,U26C A36U A51G A118G,1.44
15,A24G G31A A55G A78U A89G G106A,0.01
16,U26A U38C A89U U127A,2.96
17,A27G U39C U49G U70C G75A A95G,0.08
18,U26C A56G U87A A111G U122A A126G,0.01
19,G28U U103C A118G U120C,0.23
20,A27G A62G A95G U102A,1.28
21,A24U A64G A117G U130C,0.7
22,C25U A67G A82G U127A,1.02
23,A24G U39C C40U U108C,0.08
